Reference: the supplement of paper PMC4723716
± gives the uncertainty stated by the source. The full ranking holds about 9,900 compounds; the median of “viability index relative to DMSO control” is about 1, and the lowest 2% start at about 0.85. The list shows a part of the results.

System: Plasmodium falciparum NF54 stage V gametocytes
Experiment: viability index relative to DMSO control (fraction); higher = less gametocyte killing
Conditions: 2.5 µM, incubation time: 72 h
Method in brief: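 P. falciparum NF54 stage V gametocytes (serum-free medium, 0.75% gametocytemia, 1.25% hematocrit) were exposed to compound at 2.5 µM for 72 hr at 37°C under low oxygen, then stained with MitoTracker Red CMXRos and saponin for one to two hours. Red particles of 20–70 µm2 in one field per well were counted, and the viability index is that count scaled to the plate mean of solvent-only wells.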

[1] = library set: Broad Institute DOS
[2] = library set: Broad Institute Blood Stage

Row | Compound | viability index [1] | viability index [2]
1 | CN1CCN(C(=O)C[C@@H]2CC[C@H]3[C@@H](COC[C@H](O)CN3C(=O)Nc3ccc4c(c3)OCO4)O2)CC1 | 1 ± 0.082 | –
2 | O=C(Nc1cc(F)ccc1F)N[C@H]1CC[C@H](CC(=O)N2CCc3ccccc3C2)O[C@@H]1CO | 1.07 ± 0.075 | –
3 | COc1ccc2c3c([C@H](CO)N(C)C[C@]33CCN(CC3)C(=O)c3cccnc3)n(C)c2c1 | 0.969 ± 0.11 | –
4 | CO[C@@H]1CN(C)C(=O)c2cc(NC(=O)Nc3ccccc3F)ccc2OC[C@@H](C)N(CCC(F)(F)F)C[C@H]1C | 1.058 ± 0.0095 | –
5 | C/C=C/c1ccc([C@H]2[C@H]3CNC[C@@H]2N3S(=O)(=O)c2ccccc2C)cc1 | 1.04 ± 0.027 | –
6 | C[C@H](CO)N1C[C@H](C)[C@H](CN(C)C(=O)Nc2cccc3ccccc23)Oc2ncccc2C1=O | 0.826 ± 0.021 | –
7 | C/C=C/c1ccc([C@H]2[C@H]3CNC[C@@H]2N3Cc2cc(F)ccc2F)cc1 | 1.071 ± 0.0029 | –
8 | C[C@H]1CN([C@@H](C)CO)C(=O)Cc2cc(NC(=O)Cn3cnnn3)ccc2O[C@H]1CN(C)S(=O)(=O)c1ccc(Cl)cc1 | 1.04 ± 0.051 | –
9 | COc1ccccc1-c1ccc2c(c1)[C@H]1[C@H](CCN1Cc1ccccc1F)[C@@H](CO)N2 | 1.02 ± 0.035 | –
10 | O=C(c1ccccn1)N1C[C@@H]2[C@H](c3ccccc31)[C@H](CO)N2C(=O)C1CCCCC1 | 1.05 ± 0.047 | –
11 | CN1[C@@H]2CN(C(=O)Nc3cc(F)ccc3F)c3ccccc3[C@@H]2[C@@H]1CO | 1.019 ± 0.0066 | –
12 | CO[C@H]1CN(C)C(=O)c2cc(NC(=O)Nc3c(C)noc3C)ccc2OC[C@@H](C)NC[C@H]1C | 1 ± 0.058 | –
13 | CN1c2ccc(-c3ccc(F)cc3)cc2[C@@H]2[C@@H](CCN2C(=O)Cc2cccnc2)[C@H]1CO | 0.985 ± 0.07 | –
14 | COc1ccc(S(=O)(=O)Nc2ccc3c(c2)CC(=O)N([C@@H](C)CO)C[C@@H](C)[C@@H](CN(C)Cc2ccc(C(=O)Nc4ccccc4N)cc2)O3)cc1 | 0.844 ± 0.012 | –
15 | CCCN1[C@H](C(=O)N2CCOCC2)[C@@H](CO)[C@@H]2Cn3c(ccc(-c4ccccc4F)c3=O)[C@@H]21 | 1.037 ± 0.0065 | –
16 | CO[C@H](CN(C)S(=O)(=O)c1ccc(F)cc1)[C@@H](C)CN(Cc1ccccc1Cl)[C@@H](C)CO | 0.986 ± 0.083 | –
17 | O=C(C[C@H]1CC[C@@H]2[C@H](COC[C@H](O)CN2C(=O)c2ccc(F)cc2)O1)N1CCCCC1 | 1.1 ± 0.052 | –
18 | COc1ccc(-c2ccc([C@H]3[C@@H](CO)N4C(=O)CN(C(=O)Cc5ccccn5)C[C@@H]34)cc2)cc1 | 0.976 ± 0.052 | –
19 | CC(=O)N1[C@H](CNC(=O)CN(C)C)[C@H](c2ccc(C3=CCCCC3)cc2)[C@@H]1CO | 0.953 ± 0.015 | –
20 | CN(C)CC(=O)N1[C@H](C#N)[C@H](c2ccccc2-c2ccccc2F)[C@@H]1CO | 1.1 ± 0.066 | –
21 | CO[C@@H](CN(C)Cc1cc(F)ccc1F)[C@H](C)CN([C@H](C)CO)S(=O)(=O)c1ccc(C)cc1 | 0.987 ± 0.032 | –
22 | C[C@H](CO)N1C[C@H](C)[C@H](CN(C)S(=O)(=O)c2ccccc2)Oc2ccc(NC(=O)C3CC3)cc2C1=O | 0.919 ± 0.13 | –
23 | CCCNC(=O)N1C[C@@H](C)[C@H](OC)CN(C)C(=O)c2ccc(NC(=O)CC)cc2OC[C@@H]1C | 1.04 ± 0.049 | –
24 | COC(=O)C[C@H]1C[C@H]2c3cc(NC(=O)c4ccc5c(c4)OCO5)ccc3O[C@H]2[C@H](CO)O1 | 1.05 ± 0.048 | –

Row | Compound | viability index [1] | viability index [2]
25 | CC(C)NC(=O)N(C)C[C@@H]1Oc2c(NS(=O)(=O)c3cccs3)cccc2C(=O)N([C@H](C)CO)C[C@H]1C | 0.987 ± 0.036 | –
26 | CC(C)[C@H]1COCn2nncc2CCCC(=O)N1 | 0.936 ± 0.06 | –
27 | CO[C@H](CN(C)Cc1ccc2c(c1)OCO2)[C@H](C)CN(C(=O)c1ccccc1)[C@@H](C)CO | 1.067 ± 0.0074 | –
28 | C[C@H](CO)N1C[C@H](C)[C@@H](CN(C)C(=O)Nc2ccc3c(c2)OCO3)OCc2ccccc2-c2c(n(C)c3ccccc23)C1=O | 1.019 ± 0.0059 | –
29 | C[C@H](O)C#Cc1ccc([C@@H]2[C@@H](CO)N3CCCCN(C(=O)c4ccc5c(c4)OCO5)C[C@@H]23)cc1 | 1.05 ± 0.027 | –
30 | CC(C)C#Cc1ccc([C@H]2[C@@H](CO)N3C(=O)CN(C(=O)c4ccc5c(c4)OCO5)C[C@H]23)cc1 | 1.067 ± 0.0022 | –
31 | COc1ccccc1S(=O)(=O)N(C)C[C@@H]1OCc2ccccc2-c2c(n(C)c3ccccc23)C(=O)N([C@H](C)CO)C[C@@H]1C | – | 0.965 ± 0.054
32 | CCN(C[C@@H]1[C@@H](c2ccc(C3=CCCCC3)cc2)[C@@H](CO)N1CC1CC1)C(C)=O | 0.944 ± 0.0088 | –
33 | C[C@@H]1CN([C@@H](C)CO)C(=O)c2cccc(NC(=O)Nc3ccccc3)c2O[C@@H]1CN(C)C(=O)Nc1ccc(F)cc1 | – | 0.727 ± 0.041
34 | Cc1noc(C)c1NC(=O)Nc1ccc2c(c1)C(=O)N([C@H](C)CO)C[C@H](C)[C@H](CN(C)S(=O)(=O)c1cccs1)OCCCC[C@@H](C)O2 | 1.07 ± 0.05 | –
35 | CCCNC(=O)N1CC2(C1)[C@@H](c1ccccc1)[C@@H](CO)N2C(=O)CC1CC1 | 1.04 ± 0.083 | –
36 | COc1ccc(S(=O)(=O)N(C)C[C@H]2Oc3c(NC(=O)c4nc5ccccc5s4)cccc3C(=O)N([C@H](C)CO)C[C@H]2C)cc1 | 1.03 ± 0.022 | –
37 | COc1ccccc1-c1ccc([C@@H]2[C@@H](C#N)N[C@@H]2CO)cc1 | 1.07 ± 0.07 | –
38 | C[C@H](NC(=O)C[C@@H]1C=C[C@@H](NS(=O)(=O)c2cccc(F)c2)[C@@H](CO)O1)c1ccccc1 | 1.07 ± 0.04 | –
39 | COCC(=O)Nc1ccc2c(c1)[C@@H]1C[C@@H](CC(=O)N[C@H](C)c3ccccc3)O[C@@H](CO)[C@@H]1O2 | 1.01 ± 0.02 | –
40 | C[C@H](CO)N1C[C@H](C)[C@@H](CN(C)S(=O)(=O)c2ccccc2F)Oc2ncc(/C=C/c3ccccc3)cc2C1=O | 1.05 ± 0.049 | –
41 | CCCNC(=O)N1CC2(C1)[C@@H](c1ccccc1)[C@@H](CO)N2Cc1ccc(Cl)cc1 | 1.11 ± 0.015 | –
42 | C[C@H]1CN([C@@H](C)CO)C(=O)c2c(c3ccccc3n2C)-c2ccccc2CO[C@H]1CN(C)C(=O)NC1CCCCC1 | 1.03 ± 0.08 | –
43 | N#C[C@@H]1[C@@H](c2ccccc2C2=CCCC2)[C@H](CO)N1C(=O)NC1CCCCC1 | 1.08 ± 0.077 | –
44 | CCCNC(=O)N1[C@H](CO)[C@H](c2ccc(-c3ccc(C#N)cc3)cc2)[C@@H]1CNC | 1.06 ± 0.072 | –
45 | O=C(C[C@H]1CC[C@@H]2[C@H](COC[C@H](O)CN2Cc2ccc(C(F)(F)F)cc2)O1)N1CCc2ccccc2C1 | 0.846 ± 0.011 | –
46 | N#C[C@H]1[C@H](c2ccccc2C2=CCCC2)[C@H](CO)N1C(=O)NC1CCCCC1 | 0.986 ± 0.053 | –
47 | COc1ccc2c3c([C@@H](CO)N(C[C@]33CCN(Cc4ccccn4)CC3)C(=O)Nc3ccc(F)cc3)n(C)c2c1 | 1.05 ± 0.015 | –
48 | CCS(=O)(=O)Nc1ccc2c(c1)C(=O)N(C)C[C@@H](OC)[C@H](C)CN(CC1CCCCC1)[C@H](C)CO2 | 1.022 ± 0.0074 | –

Row | Compound | viability index [1] | viability index [2]
49 | C/C=C/c1cccc(-c2nc(C(=O)N3CCCCC3)cc3c2[C@H](CCO)N(C(=O)NC(C)C)C3)c1 | 0.995 ± 0.021 | –
50 | COc1ccc2c3c([C@H](CO)N(C)C[C@]33CN(C3)S(=O)(=O)c3cccs3)n(C)c2c1 | 1.04 ± 0.075 | –
51 | O=C(NCc1ccc2c(c1)OCO2)[C@@H]1[C@@H](CO)[C@@H]2Cn3c(cccc3=O)[C@H]1N2Cc1cncnc1 | 1.07 ± 0.071 | –
52 | O=S(=O)(c1ccccc1)N1[C@@H]2CNc3ccccc3[C@@H]2[C@@H]1CO | 1.03 ± 0.053 | –
53 | CCCNC(=O)N1CC(=O)N2[C@@H](CO)[C@@H](c3ccc(C#CCC4CCCC4)cc3)[C@@H]2C1 | 1.02 ± 0.0068 | –
54 | COc1ccc(NC(=O)N(C)C[C@@H]2Oc3ccc(NC(=O)Nc4cccc5ccccc45)cc3CC(=O)N([C@H](C)CO)C[C@H]2C)cc1 | 0.993 ± 0.14 | –
55 | CO[C@H]1CN(C)C(=O)c2cc(NC(=O)C3CCOCC3)ccc2OC[C@H](C)NC[C@@H]1C | 0.972 ± 0.0054 | –
56 | C[C@@H](NC(=O)C[C@@H]1CC[C@@H]2[C@H](COC[C@H](O)CN2Cc2ccc(C(F)(F)F)cc2)O1)c1ccccc1 | 1.09 ± 0.067 | –
57 | C[C@H](CO)N1C[C@H](C)[C@@H](CN(C)S(=O)(=O)c2ccc([N+](=O)[O-])cc2)OCc2ccccc2-c2c(n(C)c3ccccc23)C1=O | 0.896 ± 0.046 | –
58 | OC[C@H]1[C@H](c2ccccc2)C2(CN(Cc3cccnc3)C2)N1Cc1ccncc1 | 0.9974 ± 0.0094 | –
59 | CO[C@H]1CN(C)C(=O)c2cc(NC(=O)NC(C)C)ccc2OC[C@H](C)N(Cc2ccccc2)C[C@@H]1C | 1.016 ± 0.0041 | –
60 | O=C(C[C@@H]1CC[C@H]2[C@@H](COC[C@H](O)CN2CCC(F)(F)F)O1)NCc1ccc2c(c1)OCO2 | 1 ± 0.023 | –
61 | CC(C)NC(=O)N(C)C[C@@H]1Oc2ccc(NC(=O)Cc3ccccc3)cc2CC(=O)N([C@@H](C)CO)C[C@@H]1C | 0.995 ± 0.13 | –
62 | CO[C@H]1CC[C@@H]2CCOc3c(C#N)cccc3C(=O)N(C)CCCC(=O)N(C)C[C@@H]1O2 | 0.934 ± 0.11 | –
63 | C[C@@H]1CN([C@@H](C)CO)C(=O)c2cc(NC(=O)NC3CCCCC3)ccc2O[C@H]1CN(C)S(C)(=O)=O | 0.971 ± 0.089 | –
64 | O=C1CN(S(=O)(=O)Cc2ccccc2)C[C@@H]2[C@H](c3ccc(C#Cc4ccccc4)cc3)[C@H](CO)N12 | 0.929 ± 0.16 | –
65 | C[C@@H]1CN([C@@H](C)CO)C(=O)c2cc(NS(=O)(=O)c3cccs3)ccc2O[C@H]1CN(C)S(=O)(=O)c1ccc(Cl)cc1 | 0.953 ± 0.098 | –
66 | COCc1cn(CC[C@@H]2CC[C@H](NC(=O)Nc3c(C)noc3C)[C@@H](CO)O2)nn1 | 1.07 ± 0.097 | –
67 | COc1ccccc1CNC(=O)C[C@@H]1CC[C@@H]2[C@@H](COc3ccc(NC(C)=O)cc3C(=O)N2C)O1 | 0.959 ± 0.09 | –
68 | CCCNC(=O)[C@H]1[C@H](CO)[C@H]2Cn3c(ccc(/C=C/c4ccccc4)c3=O)[C@H]2N1CC1CC1 | 0.97 ± 0.017 | –
69 | O=C(C[C@H]1CC[C@H]2[C@@H](COC[C@@H](O)CN2C(=O)Nc2ccc(F)cc2)O1)NC1CCC1 | 1.05 ± 0.033 | –
70 | O=C(C[C@@H]1CC[C@H]2[C@@H](COC[C@H](O)CN2C(=O)Nc2cccc(F)c2)O1)NCCCN1CCOCC1 | 1.1 ± 0.041 | –
71 | O=C(C[C@H]1CC[C@H]2[C@@H](COC[C@H](O)CN2C(=O)c2cccnc2)O1)NCC1CC1 | 1.03 ± 0.081 | –
